Measured values taken from PubChem BioAssay AID504332 (National Center for Advancing Translational Sciences (NCATS), 2011).
Out of some 350,000 compounds screened, about 31,000 (8.9%) were called active. Inconclusive means that the source gave no clear call. Such entries were picked first, then a sample of the others. Calls follow the shape of the dose curve; as a rule, active = well fitted inhibition curve with a large enough effect; inconclusive = small, poorly fitted or top-dose-only effect; inactive = no such curve, though single readings can be large or run the other way. A potency beside an inconclusive call is a rough fit, not a confirmed value.

These compounds were tested against Histone-lysine N-methyltransferase EHMT2 (Homo sapiens) (UniProt Q96KQ7) (assay: qHTS Assay for Inhibitors of Histone Lysine Methyltransferase G9a). Settings: G9a H3K9 monomethylation, AlphaScreen, 2 h; activity, negative = inhibition: at 59 µM (top of the series) unless noted.
How it was run: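 AlphaScreen detection with an anti-monomethyl H3K9 antibody quantified product after a 2 h room-temperature reaction containing 500 nM biotinylated H3K9 peptide, 20 µM SAM and 20 nM enzyme, which had been preincubated 15 min with compound.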
% is scaled to controls: 0 for no effect and ±100 for the full control effect; potency is read from the fitted curve at half-maximal effect; tags tell the direction and shape of the fitted curve.
Also: nearly all actives have a fitted effect of over 75% in size.

UniProt Q96KQ7, sequence (Q96KQ7 whole entry, looked up): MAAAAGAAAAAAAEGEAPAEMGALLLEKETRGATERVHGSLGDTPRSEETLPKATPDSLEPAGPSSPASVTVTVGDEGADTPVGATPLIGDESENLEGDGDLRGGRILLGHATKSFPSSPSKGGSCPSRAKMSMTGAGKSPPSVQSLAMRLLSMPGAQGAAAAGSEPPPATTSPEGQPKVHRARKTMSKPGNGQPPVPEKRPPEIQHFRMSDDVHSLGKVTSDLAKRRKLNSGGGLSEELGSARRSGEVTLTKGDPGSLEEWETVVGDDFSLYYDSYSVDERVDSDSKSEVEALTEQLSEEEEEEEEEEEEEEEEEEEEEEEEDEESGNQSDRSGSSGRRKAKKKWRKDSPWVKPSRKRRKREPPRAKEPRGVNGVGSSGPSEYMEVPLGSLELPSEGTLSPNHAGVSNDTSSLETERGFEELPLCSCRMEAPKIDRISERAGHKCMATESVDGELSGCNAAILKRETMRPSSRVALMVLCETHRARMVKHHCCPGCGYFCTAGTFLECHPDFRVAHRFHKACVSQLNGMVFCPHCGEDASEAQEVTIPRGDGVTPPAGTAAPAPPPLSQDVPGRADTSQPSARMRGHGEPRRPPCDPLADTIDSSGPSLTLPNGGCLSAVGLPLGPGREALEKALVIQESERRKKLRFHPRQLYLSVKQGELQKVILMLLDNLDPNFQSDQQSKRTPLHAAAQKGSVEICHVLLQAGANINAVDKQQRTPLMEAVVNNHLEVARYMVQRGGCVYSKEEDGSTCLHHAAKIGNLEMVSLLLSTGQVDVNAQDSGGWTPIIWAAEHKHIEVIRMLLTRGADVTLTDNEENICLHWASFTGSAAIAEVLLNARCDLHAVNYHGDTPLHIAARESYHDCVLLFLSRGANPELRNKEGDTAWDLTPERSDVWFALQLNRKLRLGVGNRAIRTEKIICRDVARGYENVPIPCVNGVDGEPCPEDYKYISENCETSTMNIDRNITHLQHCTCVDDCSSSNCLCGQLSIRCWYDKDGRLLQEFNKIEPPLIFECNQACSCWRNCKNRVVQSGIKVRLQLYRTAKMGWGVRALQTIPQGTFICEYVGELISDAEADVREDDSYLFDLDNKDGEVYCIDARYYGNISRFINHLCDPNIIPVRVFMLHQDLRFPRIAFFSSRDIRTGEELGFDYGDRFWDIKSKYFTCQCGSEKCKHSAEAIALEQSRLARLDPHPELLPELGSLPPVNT

Row | SMILES | activity, negative = inhibition | Potency
1 | COC(=O)c1ccc2c(c1)SC1=C(CCCC1=O)N2 | inconclusive: -76.9% [inhibitor] | –
2 | N#CC1=C(N)SC(N)=C(C#N)C1c1c(Cl)cccc1Cl | – | active: 11.2 µM
3 | O=C(Cc1ccccc1)NNc1ccc2ccccc2c1 | – | inconclusive: 89.1 µM [inhibitor, single point]
4 | Cc1ccc(OCC(=O)NCc2ccco2)cc1C | – | inactive
5 | CN(CC(=O)Nc1cccc(F)c1)C(=O)CCSc1ccc(F)cc1 | – | inconclusive: 63.1 µM [inhibitor, partial curve, poor fit]
6 | CCOc1ccc(C(=O)NCC(=O)N2CCC(C)CC2)cc1OCC | – | inactive
7 | CCCC1CC(C(=O)N[C@H](C(C)O)C2OC(SC)[C@@H](O)C(O)C2O)N(C)C1 (stereo partly drawn) | inactive: -46% [at 2.33 µM] | –
8 | CN(c1ccccc1)S(=O)(=O)c1cccc(NC(=O)CCNC(=O)c2ccc(Cl)cc2)c1 | – | inconclusive: 1.12 µM [inhibitor, single point]
9 | O=C(NCC(c1cccnc1)N1CCOCC1)c1cccs1 (stereo not drawn) | – | active: 44.7 µM
10 | Cc1cnc(C(=O)OCC(=O)Nc2ccc(OCc3ccccc3)cc2)cn1 | – | inactive
11 | CCOC(=O)c1cc2cc([N+](=O)[O-])cc(OC)c2oc1=O | – | inconclusive: 56.2 µM [inhibitor, partial curve, poor fit]
12 | CCN(CC(=O)Nc1ccccc1C(F)(F)F)C(=O)Cc1ccc2c(c1)CCC2 | inactive: -3.15% [at 12.7 µM] | –
13 | O=C(Nc1ncn[nH]1)c1cccc(S(=O)(=O)N2CCOCC2)c1 | – | active: 15.8 µM
14 | COc1ccc(NC(=O)CSc2oc(-c3ccc(F)cc3)nc2S(=O)(=O)c2ccc(C)cc2)c(OC)c1 | – | inconclusive: 31.6 µM [inhibitor, single point]
15 | Cc1cc(=O)n(Cc2ccccc2)c2c(C)cccc12 | – | inactive
16 | CCc1cccc(CC)c1NC(=O)C1CCC(CNS(=O)(=O)c2cccc3nsnc23)CC1 (stereo not drawn) | – | inconclusive: 8.91 µM [inhibitor, partial curve, poor fit]
17 | CC1CCCC(NC(=O)CN2CCN(S(=O)(=O)c3ccc(Br)s3)CC2)C1C (stereo not drawn) | – | inactive
18 | CCN(CC)S(=O)(=O)c1cccc(NC(=O)CN2C(=O)c3ccc([N+](=O)[O-])cc3C2=O)c1 | – | inconclusive: 89.1 µM [inhibitor, single point]
19 | Cc1cccc(NC(=O)CN2C(=O)N/C(=C/c3ccc(C)o3)C2=O)c1 | – | active: 35.5 µM
20 | Nc1cccc2c1C(=O)N(C(=O)c1cccc(S(=O)(=O)N3CCCC3)c1)C2=O | – | inconclusive: 39.8 µM [inhibitor, single point]
21 | COc1ccc2c(c1OC)C(=O)OC2Nc1ccccc1S(=O)(=O)C(F)F (stereo not drawn) | – | inconclusive: 89.1 µM [inhibitor, single point]
22 | CCN(CC)C(=O)c1ccccc1NC(=O)c1cccc(S(=O)(=O)N(CC)CC)c1 | – | inactive

Row | SMILES | activity, negative = inhibition | Potency
23 | CSc1nc(SCC(=O)NCC2CCCO2)c2c3c(sc2n1)CN(C)CC3 (stereo not drawn) | – | inconclusive: 70.8 µM [inhibitor, single point]
24 | Cc1cccc2cc(CN(Cc3ccco3)C(=O)c3ccncc3)c(=O)[nH]c12 | inactive: -8.22% [at 12.7 µM] | –
25 | CCOC(=O)C1=C(c2ccccc2)N=c2s/c(=C\c3ccc(O)cc3)c(=O)n2C1c1cccs1 (stereo not drawn) | – | inconclusive: 35.5 µM [inhibitor, partial curve, poor fit]
26 | CCO[C@@H]1OC(C(N)=O)=C[C@H](c2cn(C(C)=O)c3ccccc23)[C@H]1CCCO | – | inconclusive: 6.31 µM [inhibitor, single point]
27 | Cc1ccc(-c2cc(C(=O)OCC(=O)N(C)c3c(N)n(Cc4ccccc4)c(=O)[nH]c3=O)c3ccccc3n2)o1 | – | inconclusive: 2.24 µM [inhibitor, partial curve, poor fit]
28 | COc1ccc(/C=C/C2=CCN(Cc3ccc(OC)cc3)CC2)cc1 | – | inconclusive: 50.1 µM [inhibitor, partial curve]
29 | Cc1cc(=O)[nH]c2cc(O)ccc12 | – | inactive
30 | CC(=O)Nc1ccc(/C=C/c2nc3ccccc3[nH]c2=O)cc1 | – | inconclusive: 89.1 µM [inhibitor, single point]
31 | Cc1ccc(-n2nc3ccc(N)cc3n2)cc1 | – | inconclusive: 0.355 µM [inhibitor, full curve, poor fit]
32 | Cc1cccc(N2CCN(C(=O)c3cnn(-c4ccccc4Cl)c3C3CCN(C(=O)OC(C)(C)C)CC3)CC2C)c1 (stereo not drawn) | – | inconclusive: 5.01 µM [inhibitor, partial curve, poor fit]
33 | COc1ccc(S(=O)(=O)N2CCN(c3nc(-c4cccnc4)nc4ccccc34)CC2)cc1 | – | inconclusive: 3.55 µM [inhibitor, single point]
34 | N#Cc1ccccc1CN1C(=O)S/C(=C/c2cccn2-c2ccc(C(=O)O)cc2)C1=O | inconclusive: -67.7% [inhibitor] | –
35 | CCCN(CC(=O)Nc1ccccc1OC)Cc1c(O)ccc2ccccc12 | – | active: 3.55 µM
36 | CCN1CCc2c(sc(NC(=O)CN3C(=O)c4ccccc4C3=O)c2C(N)=O)C1 | – | inconclusive: 50.1 µM [inhibitor, partial curve]
37 | Cn1c(SCc2nc3ccccc3c(=O)[nH]2)nnc1-c1ccco1 | – | inconclusive: 89.1 µM [inhibitor, partial curve, poor fit]
38 | O=C(CN1CC(c2ccccc2)CC1=O)OCc1ccccc1F (stereo not drawn) | inactive: -44.1% [at 12.7 µM] | –
39 | O=C(Nc1ccccc1)N(Cc1c[nH]c2ccccc12)C1CCCCCC1 | – | inactive
40 | CC(C)(CSc1ccccn1)NS(=O)(=O)c1ccc(Cl)cc1 | – | inconclusive: 20 µM [inhibitor, single point]
41 | O=C1N=C(c2ccccc2)C(c2ccccc2)N1 (stereo not drawn) | – | inconclusive: 4.47 µM [inhibitor, full curve, poor fit]
42 | O=C(Nc1ccccc1C(F)(F)F)c1cc(-c2ccc3c(c2)OCCO3)on1 | – | inactive
43 | CC(=O)Nc1ccc(S(=O)(=O)N(C)CC(=O)OC2CCCCC2=O)cc1 (stereo not drawn) | – | inconclusive: 3.16 µM [inhibitor, single point]
